# According to PubChem BioAssay AID651820 (National Center for Advancing Translational Sciences (NCATS), 2012):
# In all, about 340,000 compounds went through this assay and about 12,000 (3.5%) were called active. Inconclusive results, whose numbers are uncertain, are shown with a selection of clear calls. Calls come from the whole dose curve; as a rule, active = well fitted inhibition curve with a large enough effect; inconclusive = small, poorly fitted or top-dose-only effect, or another doubt; inactive = no such curve, though single readings can be large or run the other way. No potency is given beside an inconclusive call; the fits are too rough.
# Test: qHTS Assay for Inhibitors of Hepatitis C Virus (HCV)
# Settings: Huh7.5.1 HCVcc-Cre (HCVcc is cell-culture hepatitis C virus) infection, luciferase reporter, 44 h; activity change, negative = inhibition: at 41.8 µM (top of the series) unless noted
# Procedure, shortened: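 Infectious HCV cell culture screen: compound-treated cells (1,000/well, pre-plated 4 h) are infected with HCVcc-Cre at roughly 0.5 moi and grown 44 h. Infection is quantified by luciferase signal after 15 min substrate incubation at room temperature.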
# % is set by controls: 0 for no effect and ±100 for the full control effect; potency is the fitted concentration of half-maximal effect; tags give direction and shape of the fitted curve.
SMILES,Potency,"activity change, negative = inhibition"
COc1ccc(-c2c(C)cc3oc(=O)cc(-c4ccccc4)c3c2C)cc1OC,active: 11.2 µM,
CCOC(=O)C1(c2ccccc2)CCN(CCC(=O)Nc2ccc(F)cc2)CC1,"inconclusive [inhibitor, partial curve]",
O=C(NCCc1c[nH]c2ccccc12)C(=O)NCC1OCCN1S(=O)(=O)c1ccccc1 (configuration not stated),"inconclusive [inhibitor, single point]",
CC(C)c1nc(N2CCN(C(=O)c3ccccc3)CC2)c(C#N)c2c1COC(C)(C)C2,"inconclusive [inhibitor, single point]",
O=C(N/N=C(\CC(=O)c1cccs1)C(F)(F)F)c1ccncc1,,inconclusive: -35.8% [inhibitor]
Cc1nc(Sc2ccccc2)c(C#N)c(C)c1[N+](=O)[O-],,inconclusive: -34.9% [inhibitor]
COc1c2ccc(C(=O)NCc3cc(C(F)(F)F)cc(C(F)(F)F)c3)cc2nn1C,"inconclusive [inhibitor, full curve]",
CCOC(=O)c1sc(NC(=S)NC(=O)c2ccccc2)c(C(=O)OCC)c1C,"inconclusive [inhibitor, full curve]",
Cc1cc(Br)ccc1SCC(=O)Nc1cccnc1,,inactive: 10.1%
Cc1sc2nc(CSc3ccccc3)nc(N3CCOCC3)c2c1C,"inconclusive [inhibitor, full curve]",
Cc1ccc(CNc2ncnc3[nH]ncc23)cc1,,inactive: 9.61%
COCCn1c(SCC(=O)c2cc(C)n(C)c2C)nc2ccccc2c1=O,"inconclusive [inhibitor, partial curve]",
COC(=O)c1cc(NC(=O)c2cccc([N+](=O)[O-])c2C)ccc1Cl,"inconclusive [inhibitor, partial curve]",
O=c1c2ccccc2nc(SCc2ccc(F)cc2Cl)n1CCCN1CCOCC1,active: 10 µM,
COc1ccc(CCNCC2C(Oc3ccc(Cl)cc3)C(=O)N2c2ccccc2C)cc1OC (configuration not stated),"inconclusive [inhibitor, single point]",
COc1ccc(CCNC(=O)c2ccc(CNS(=O)(=O)c3ccccc3)cc2)cc1OC,"inconclusive [inhibitor, single point]",
COc1cc(C)ccc1OCCOCCOc1cccc2ccc(C)nc12,"inconclusive [inhibitor, partial curve]",
CN1CCN(S(=O)(=O)c2ccc(Nc3cccc(Cl)c3)c([N+](=O)[O-])c2)CC1,"inconclusive [inhibitor, single point]",
N#CC(C#N)=C1NC2(CCCCC2)Cc2ccccc21,,inactive: -14.5%
COc1ccc(S(=O)(=O)NNC(=O)C2COc3ccccc3O2)cc1[N+](=O)[O-] (configuration not stated),"inconclusive [inhibitor, partial curve]",
COc1ccc(NC(=O)CCN2CCN(S(=O)(=O)c3cc(Cl)ccc3Cl)CC2)cc1,"inconclusive [inhibitor, single point]",
CNc1nc(-c2ccc3c(c2)CCN3C(=O)c2cccc(F)c2)cs1,active: 11.2 µM,
CN(C)c1ccc(NC(=O)CC2NCCNC2=O)cc1 (configuration not stated),,inactive: 21.6%
Cc1ccc(NNC(=O)c2ccno2)c(C)c1,"inconclusive [inhibitor, partial curve]",

SMILES,Potency,"activity change, negative = inhibition"
O=C(Nc1ccc(Cl)c([N+](=O)[O-])c1)ONC1=NCCCCC1,,inactive: -0.0072%
O=C(COc1cccc2ccccc12)N1CCN(c2ccccc2)CC1,"inconclusive [inhibitor, single point]",
COc1ccccc1N1CCN(C(=O)COc2ccc(Cl)cc2Br)CC1,"inconclusive [inhibitor, partial curve]",
Cc1ccc(/C=C2/SC(=S)N(CCC(=O)N3CCN(C)CC3)C2=O)cc1,"inconclusive [inhibitor, full curve]",
O=C(Nc1ccc(Cl)cc1)Nc1ccc(N2CCCC2)c(S(=O)(=O)Nc2ccccc2Cl)c1,active: 5.62 µM,
O=C(NCCC1=CCCCC1)C1CCN(C(=O)Nc2ccccc2)CC1,,inactive: -16.2%
CCCCCCCCOc1ccc(C2CC(=O)NC2=O)cc1 (configuration not stated),,inactive: 25%
CC(C)(C)OC(=O)COc1cc(O)c2c(=O)cc(-c3ccccc3)oc2c1,"inconclusive [inhibitor, full curve]",
Cc1ccc(Cl)cc1N1CCN(C(=O)CN(c2ccccc2)S(=O)(=O)N(C)C)CC1,"inconclusive [inhibitor, single point]",
Oc1ccccc1-n1c(-c2ccccc2)ccc1-c1ccccc1,"inconclusive [inhibitor, single point]",
COc1ccc(C(C(=O)NCc2ccccc2)N(C(=O)c2snc(C(N)=O)c2N)C2CCCC2)cc1 (configuration not stated),,inactive: -7.87%
O=S1(=O)N=C(N/N=C/C=C/c2ccccc2)c2ccccc21,,inactive: 0.18%
CCOc1ccccc1-n1ccn(CC(=O)Nc2ccc(Br)cc2F)c(=O)c1=O,"inconclusive [inhibitor, partial curve]",
Cn1c(-c2ccccc2)cnc1NCc1ccccc1,,inactive: -12.8%
CCOC(=O)Cn1nnnc1C(C(C)C)N(Cc1cc2c(C)cc(C)cc2[nH]c1=O)C1CCCC1 (configuration not stated),inactive,
O=[N+]([O-])c1ccc(N2CCN(c3cccc(Cl)c3)CC2)cn1,,inactive: -15.1%
C=CCN1CCc2c(cc(O)c(O)c2Br)[C@@H](c2ccccc2)C1,"inconclusive [inhibitor, single point]",
CCOC(=O)c1c(N)sc(=S)c2c1CCC2,"inconclusive [inhibitor, single point]",
Cn1c(COc2ccccc2)nnc1SCC(=O)Nc1nnc(C2CC2)s1,,inactive: 6.02%
CCOC(=O)c1cnc2ccc(OCC)cc2c1N(C)Cc1ccccc1,active: 11.2 µM,
COc1ccc(CCNC(=O)C2CCN(S(=O)(=O)c3ccc(C)cc3)CC2)cc1,"inconclusive [inhibitor, partial curve]",
Cc1nc(CS(=O)(=O)c2ccccc2)cc(Sc2ccc(Cl)cc2)n1,,inactive: -21.1%
O=C(Nc1cccc(S(=O)(=O)Nc2ccc(Cl)cc2)c1)c1ccc(Cl)nc1,active: 1.58 µM,
